Experimental data from article PMC6919601, “Identification of Plasmodium dipeptidyl aminopeptidase allosteric inhibitors by high throughput screening” (PLoS ONE, 2019).
Among all 110,000 compounds or so, about 230 (0.21%) showed an effect of 50% or more. The list shows a part of the results.

Each compound was assayed against DPAP1 (Plasmodium falciparum, UniProt Q8IIJ9) (assay: primary screen, percent inhibition; read by cleavage of a fluorogenic dipeptide substrate; higher = more effect of the substance).
Set-up: species or system P. falciparum D10 trophozoite lysates; single well
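Also: 30 min substrate incubation versus DMSO and 10 µM JCP410 controls.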

Sequence of DPAP1 (Q8IIJ9 whole entry, looked up): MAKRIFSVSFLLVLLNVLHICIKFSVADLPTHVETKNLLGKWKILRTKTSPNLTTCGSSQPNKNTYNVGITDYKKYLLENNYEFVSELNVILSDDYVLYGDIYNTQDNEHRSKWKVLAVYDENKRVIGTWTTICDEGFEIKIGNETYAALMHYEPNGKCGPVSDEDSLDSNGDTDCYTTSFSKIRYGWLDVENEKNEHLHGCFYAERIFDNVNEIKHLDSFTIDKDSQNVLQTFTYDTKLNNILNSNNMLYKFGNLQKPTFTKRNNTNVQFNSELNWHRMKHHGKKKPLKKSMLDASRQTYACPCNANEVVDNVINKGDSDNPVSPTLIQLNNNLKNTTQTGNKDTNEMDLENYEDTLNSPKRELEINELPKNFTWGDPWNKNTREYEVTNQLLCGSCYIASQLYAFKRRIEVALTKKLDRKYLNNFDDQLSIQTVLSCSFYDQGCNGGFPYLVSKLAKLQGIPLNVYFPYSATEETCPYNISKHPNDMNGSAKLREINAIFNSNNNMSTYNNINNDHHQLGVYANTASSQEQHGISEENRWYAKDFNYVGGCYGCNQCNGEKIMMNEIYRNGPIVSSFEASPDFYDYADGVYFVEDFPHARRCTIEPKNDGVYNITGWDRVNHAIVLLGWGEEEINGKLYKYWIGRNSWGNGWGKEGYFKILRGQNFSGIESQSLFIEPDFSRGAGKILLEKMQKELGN

First: Cc1nc2ccccc2c2oc(C(=O)NC(C)CCc3ccccc3)cc12 (centres unmarked)
Second: CCc1ccccc1S(=O)(=O)Cc1ccc(C(=O)NCCc2ccccc2)o1
The “% Inhibition @ 10 uM” value of the first is higher: 3.2% for the first, -3.09% for the second.

First: CCOc1c(Cl)cc(CNCCSc2nnnn2-c2ccccc2)cc1OC
Second: COc1ccc(CC(=O)N2CCN(c3ccccc3)CC2)cc1OC
The “% Inhibition @ 10 uM” value of the first is higher: 3.84% for the first, -1.57% for the second.

First: COc1ccc(C)cc1Cn1c(S(C)(=O)=O)nc2ccccc21
Second: OCc1nc2ccccc2n1Cc1cccc(Cl)c1
The “% Inhibition @ 10 uM” value of the first is lower: -5.51% for the first, -4.07% for the second.

Compared with `O=c1oc2c3c(c(Cl)cc2c2c1CCCC2)OCN(Cc1ccco1)C3`, `CC(C)N1Cc2c(sc3c2CCCC3)N(C(=O)c2ccccc2)C1` is lower in “% Inhibition @ 10 uM” value: 4.13% for the first, -4% for the second.

Compared with `COc1ccc(S(=O)(=O)N2CCN(c3nc(C)cc(C)n3)CC2)cc1`, `CC(Nc1nc(N2CCN(S(C)(=O)=O)CC2)nc2ccccc12)c1ccccc1` (centres unmarked) is higher in “% Inhibition @ 10 uM” value: -6.74% for the first, -4.78% for the second.

Compared with `CC(C)CNC(=O)CC(c1ccccc1)c1c(O)ccc2ccccc12` (centres unmarked), `Cc1c2cnn(CC(=O)NCc3ccccn3)c(=O)c2c(C)n1Cc1ccccc1` is higher in “% Inhibition @ 10 uM” value: -1.68% for the first, 4.4% for the second.

First: Cc1ccc(-c2nc(O)nc3ccc(Cl)cc23)cc1
Second: CCOc1ccc(-c2cnc(NCc3cc(Cl)ccc3O)n2C)cc1
The “% Inhibition @ 10 uM” value of the first is higher: 12.1% for the first, 0.627% for the second.

First: CC(=O)N1CCC(NCc2cccc(Cl)c2)CC1
Second: Cc1ccc(C(=O)N2CCCC2)cc1[N+](=O)[O-]
The “% Inhibition @ 10 uM” value of the first is lower: -1.75% for the first, 3.47% for the second.

Compared with `COc1ccc(C(=O)Nc2ncc(C(F)(F)F)cc2Cl)cc1`, `CCOc1ccc(C(=O)N(Cc2nc(-c3ccc(Cl)cc3)no2)C(C)C)cc1` is lower in “% Inhibition @ 10 uM” value: 6.79% for the first, -1.84% for the second.

Compared with `COc1ccc(-c2c(C)s/c(=N\C(=O)c3ccc(OC)c(OC)c3)n2C)cc1`, `COc1ccc(C(=O)NCCc2ccc(OC)c(OC)c2)c(OC)c1` is higher in “% Inhibition @ 10 uM” value: -6.05% for the first, 0.35% for the second.

First: CCC1CCCCN1C1=CC(=O)OC12CCCCC2 (centres unmarked)
Second: O=C(NCC1CCCCC1)C1CCN(c2cnccn2)CC1
The “% Inhibition @ 10 uM” value of the first is higher: 3.38% for the first, 0.758% for the second.

Going from `CC(Oc1ccc(F)cc1)C(=O)NCCN1CCOCC1` (centres unmarked) to `c1ccc2cc(OCCCN3CCOCC3)ccc2c1`, the “% Inhibition @ 10 uM” value falls from 0.565% to -3.94%.

First: Cc1c(Cl)cccc1-n1ncnc1-c1ccc2c(c1)OCO2
Second: CCOc1cccc(=O)c2c(C)n(-c3ccc4c(c3)OCO4)c(C)c12
The “% Inhibition @ 10 uM” value of the first is higher: 1.57% for the first, 0.778% for the second.

First: NC(=O)c1c(NC(=O)c2ccc(F)cc2)sc2c1CCCCC2
Second: CC(C)(C)c1ccc(S(=O)(=O)NCc2ccc(C(=O)NCc3ccc(F)cc3)cc2)cc1
The “% Inhibition @ 10 uM” value of the first is higher: -1.89% for the first, -5.64% for the second.

Compared with `CCOC(=O)c1[nH]c(C)c(/C(C)=N/O)c1C`, `CCCC(CCC)=C(C#N)C(=O)OCC` is lower in “% Inhibition @ 10 uM” value: -2.44% for the first, -2.77% for the second.

Going from `CN(CCc1ccccn1)Cc1ccccc1F` to `O=C(CN1C(=O)C(c2ccccc2)Oc2cccnc21)NCCc1ccc(Cl)cc1` (centres unmarked), the “% Inhibition @ 10 uM” value falls from -0.292% to -1.53%.

First: Cn1cccc1Cc1nnc(SCC(=O)Nc2nccs2)n1-c1ccc(Cl)cc1
Second: CCOc1ccc2nc(SCC(=O)Nc3ccccc3C(N)=O)sc2c1
The “% Inhibition @ 10 uM” value of the first is higher: 5.32% for the first, -4.92% for the second.

Going from `COc1ccc(C2C(C#N)=C(N)Oc3[nH]nc(C)c32)cc1OCc1ccc(C(=O)OCC(C)C)cc1` (centres unmarked) to `COc1ccccc1CC(=N)NOC(=O)c1ccc(OC)c(OC)c1`, the “% Inhibition @ 10 uM” value falls from 1.52% to -5.16%.

Going from `Brc1ccc(Nc2nc(-c3ccc(-c4ccccc4)cc3)cs2)cc1` to `CCOC(=O)c1ccc(-c2ccc(/C=C3\C(=O)ON=C3c3ccccc3)o2)cc1`, the “% Inhibition @ 10 uM” value rises from -2% to 2.24%.

Going from `CCCCn1c(SCc2cccc(OC)c2)nc2c1c(=O)n(C)c(=O)n2C` to `CCOC(=O)c1sc(N2C(=O)c3oc4ccc(F)cc4c(=O)c3C2c2cccc(O)c2)nc1C` (centres unmarked), the “% Inhibition @ 10 uM” value falls from 1.76% to 0.415%.

Compared with `N#CC1(NC(=O)[C@H](Cc2c(F)cccc2F)NC(=O)c2ccc(-c3ccccc3Cl)cc2)CCSCC1`, `COc1ccc(-n2cnc3nc4c(c(-c5ccccc5)c32)CCCC4)cc1` is higher in “% Inhibition @ 10 uM” value: -5.2% for the first, 6.7% for the second.

Compared with `CCC(C#CCN1CCOCC1)(CC)OC(C)=O`, `CCOC(=O)N1CCN(C2CCC(CC)CC2)CC1` (centres unmarked) is lower in “% Inhibition @ 10 uM” value: 3.01% for the first, 0.273% for the second.

Going from `O=C1OC(c2cccc(F)c2)=N/C1=C\c1ccc(Cl)cc1Cl` to `COc1ccccc1C1=N/C(=C\c2ccccc2C(F)(F)F)C(=O)O1`, the “% Inhibition @ 10 uM” value rises from 1.25% to 7.61%.

First: Nc1ccc(S(=O)(=O)NC2=NC(=O)C([N+](=O)[O-])C(=O)N2)cc1 (centres unmarked)
Second: O=C(Nc1cc(Cl)cc(Cl)c1)c1cccc([N+](=O)[O-])c1
The “% Inhibition @ 10 uM” value of the first is higher: 4.65% for the first, 3.65% for the second.

First: O=c1c(-c2ccccc2)c(N2CCCC2)c1=O
Second: Clc1ccccc1OCCCN1CCCCC1
The “% Inhibition @ 10 uM” value of the first is higher: -0.255% for the first, -1.05% for the second.

First: Cc1ccc(OCC(=O)Nc2nnc(S(=O)(=O)N3CCCCCC3)s2)cc1C
Second: Cc1cc2nc(O)c(O)nc2cc1S(=O)(=O)CCC(=O)NC1CCC(C)CC1 (centres unmarked)
The “% Inhibition @ 10 uM” value of the first is higher: 3.3% for the first, -4.36% for the second.

Compared with `COC(=O)c1cc2sccc2n1CC(=O)c1ccccc1`, `CCn1c(/C(C#N)=C/c2ccc(OC)cc2)nc2ccccc21` is higher in “% Inhibition @ 10 uM” value: -5.15% for the first, -1.1% for the second.

Going from `CCOP(=O)(OCC)C1c2ccccc2OC(=O)C1C(C)=O` (centres unmarked) to `N/C(=N\N=C\c1ccccc1Cl)c1nonc1N`, the “% Inhibition @ 10 uM” value rises from 3.34% to 5.12%.

First: COc1c(Cl)cc(Cl)cc1/C=C/c1cc(C(F)(F)F)nc(O)n1
Second: Cc1ccc2nc(Cl)c3cc(C(=O)NC4=NC(=O)CN4C)sc3c2c1
The “% Inhibition @ 10 uM” value of the first is higher: 5.2% for the first, 4.74% for the second.

Compared with `CC(C)SC1=NSC2=NC(=O)/C(=C\c3ccc(O)cc3)C(=N)N21`, `CC(=C\c1ccccc1)/C=C1N=C(/C=C/c2ccccc2)OC/1=O` is lower in “% Inhibition @ 10 uM” value: 2.54% for the first, 2.11% for the second.

Compared with `Cc1nc(-c2ccc(Br)cc2)ncc1C(=O)O`, `Cc1ccc(NC(=O)c2nn(C)cc2Br)c(C)c1` is lower in “% Inhibition @ 10 uM” value: -5.11% for the first, -14.6% for the second.

Compared with `COCc1cc(C)nc(NC2CC(C)(C)NC(C)(C)C2)c1C#N`, `COCCOC(=O)c1c(C)oc2ccc(OCc3cc(=O)oc4cc(C)cc(C)c34)cc12` is lower in “% Inhibition @ 10 uM” value: 1.76% for the first, -1.11% for the second.

For `COc1ccc(CN2CCN(c3ccccc3F)CC2)c(OC)c1C`, the “% Inhibition @ 10 uM” value was 0.847%.
